Source: PubChem BioAssay AID1347073 (National Center for Advancing Translational Sciences (NCATS), 2019)
In all, about 45,000 compounds went through this assay and about 200 (0.44%) were called active. About 7% were inconclusive and are not listed. Calls come from the whole dose curve; as a rule, active = well fitted activation curve with a large enough effect; inconclusive = small, poorly fitted or top-dose-only effect; inactive = no such curve, though single readings can be large or run the other way. The list shows a part of the results.

assay: qHTS of TDP-43 Inhibitors: NCGC Sytravon Library Screen; conditions: yeast TDP-43 toxicity rescue, BacTiter-Glo growth, 24 h; series mostly up to 46.1 µM; growth rescue (activation): at the top concentration; note: 0% is about no effect; nearly all actives have a fitted effect of over 55% in size
From the text: The goal of this project is to identify new chemical probes capable of reversing the toxicity associated with TDP-43 which is associated with frontotemporal lobar degeneration and amyotrophic lateral sclerosis. These compounds will provide a complementary approach to deciphering the tangled mechanisms of toxicity and protection that we have uncovered through genome-wide genetic screens and are beginning to uncover in a large-scale proteomics analysis with mass spectroscopy. To this end, a miniaturized assay was developed to be screened against the Molecular Libraries Small Molecule Repository (MLSMR) to discover TDP-43 inhibitors. Please note that in the set-up this yeast-based assay compounds that inhibit as TDP-43, have a read-out as activators. NIH Chemical Genomics Center [NCGC] NIH Molecular Libraries Probe Centers Network [MLPCN] Assay Submitter (PI): Susan Lindquist, Whitehead Institute/MIT MLPCN Grant: R21 NS060957
Dispense 2.5 microL yeast galactose medium per 1536-well plate, pin compound, dispense 2.5 microL TDP-43 expressing yeast in galactose medium at OD600=0.02 (pregrown in raffinose medium to mid-log phase) per well, incubate for 24 hr at 30 deg C, and cell growth will be measured using 5 microL of Bactiter/Glo reagent to entire plate and read using Luminescence Protocol in ViewLux.

| Structure (SMILES) | growth rescue (activation) |
| --- | --- |
| COc1ccccc1NC(=O)CNC(=O)Cn1c(C)cc2ccccc2c1=O | inactive: -6.93% |
| CCCC(=O)n1nc(NCc2ccc(OC)cc2)nc1NCc1ccc(OC)cc1 | inactive: 11% |
| O=C(c1ccc(N2CCCS2(=O)=O)cc1)N1CCN(c2ccc(F)cc2)CC1 | inactive: 11.1% |
| CCCCC(=O)NC(NC(=S)N1CCCCCC1)C(Cl)(Cl)Cl (stereo not given) | inactive: 3.75% |
| COc1cc(/C=C2\SC(=Nc3ccccc3)NC2=O)cc(Cl)c1O | inactive: 13.3% |
| Cc1ccc(NC(=O)c2ccccc2NC(=O)c2cccs2)cc1 | inactive: 7.49% |
| CCCc1nnc(NC(=O)CSc2nnc(-c3ccco3)n2C)s1 | inactive: -7.43% |
| CNC(=S)Nc1cc(OC)c(NC(=O)c2ccco2)cc1OC | inactive: 13.5% |
| CC(NCC(O)COc1ccc2ccccc2c1)c1ccccc1 (stereo not given) | inactive: -6.57% |
| COC(=O)c1ccc(NC(=O)CN(CCc2ccccc2)S(=O)(=O)c2ccc(OC)cc2)cc1 | inactive: -0.444% |
| COc1cc(OC)cc(C(=O)NCC(=O)OC(C)C(=O)NC(C)C2CC3CCC2C3)c1 (stereo not given) | inactive: 9.15% |
| CNC(=O)COc1ccc(S(=O)(=O)Nc2ccccc2)cc1 | inactive: -4.96% |
| O=C(NCc1ccco1)/C(=C/c1ccccc1)NC(=O)c1ccco1 | inactive: -1.85% |
| CCn1c(C(=O)NCc2ccc(OC(C)C)cc2)cc2oc3ccccc3c21 | inactive: 23.3% |
| CC1(C(=O)NS(=O)(=O)c2ccc(Cl)cc2)CCN1C(=O)Cc1cccs1 (stereo not given) | inactive: 5.27% |
| Cc1ccc(S(=O)(=O)Nc2ccc(N3CCOCC3)cc2)cc1C | inactive: -5.87% |
| Cc1ccc(C2=N/C(=C\c3cccnc3)C(=O)O2)cc1 | inactive: -5.02% |
| COc1ccccc1NS(=O)(=O)c1ccc(N/N=C(\C)C(C)C)c([N+](=O)[O-])c1 | inactive: 13.5% |
| COC(=O)COc1ccc(C)cc1-n1nc2ccccc2n1 | inactive: 10.2% |
| CCC1=NN(C(=O)COc2ccccc2)C(O)(c2ccc(Br)cc2)C1 (stereo not given) | inactive: 26.2% |
| COC(=O)c1cccc(NC(N)=S)c1 | inactive: -18.3% |
| CCC(CCC(=O)Nc1cccc(C(=O)O)c1)C(=O)O (stereo not given) | inactive: -13.5% |
| O=C(NCC1CCCO1)/C(=C/c1cn(-c2ccccc2)nc1-c1cccnc1)NC(=O)c1ccccc1 (stereo not given) | inactive: 6.65% |
| CCOc1ccc(/C(O)=C2/C(=O)C(=O)N(CCN(CC)CC)C2c2ccco2)cc1 (stereo not given) | inactive: 12.7% |
| Cc1cc(C(=O)NN)n[nH]1 | inactive: 6.25% |
| COc1ccc(Nc2nc(C)nc3c2oc2ccccc23)c(OC)c1 | inactive: 5.83% |
| O=C(c1cc(-c2cccc(Cl)c2)on1)N1CCN(c2ccccc2)CC1 | inactive: -7.89% |
| Cc1ccc(OCC(=O)Nc2ccc3c(c2)ncn3C)cc1 | inactive: -5.44% |
| CCOc1ccccc1NC(=O)N(Cc1ccc(F)cc1)C1CCN(CC)CC1 | inactive: 16.9% |
| CC1CCCN(c2cc3c(cc2[N+](=O)[O-])C(=O)N(c2ccccc2)C3=O)C1 (stereo not given) | inactive: -0.131% |
